Assay results from paper PMC10668032.
Some of the results follow. At the low end of the ranking the order means little.

What follows are sequences tested against SIX1 homeodomain (reference allele) (UniProt Q15475) (assay: universal protein binding microarray). Settings: Universal all-10-mer PBM (8x60K, AMADID 030236), 300 nM GST-tagged protein, Alexa Fluor 488 anti-GST; buffer, salt, pH and temperature not stated; high values mean tight binding; most listed sequences are background and not binding sites; double strand, one strand shown.

Sequence	binding signal
AAAATCAC	-0.177 E-score
CCGGCATA	0.0711 E-score
CGTGTCAG	0.202 E-score
AATTCTGT	-0.201 E-score
CCCAGCTC	0.128 E-score
CCGCTTCG	-0.159 E-score
TCTCGCAA	0.0827 E-score
TGTTGCAA	-0.16 E-score
TAATCATA	0.134 E-score
GATTGGCC	-0.183 E-score
ATGGGGGA	0.11 E-score
CGGGCCGC	0.0334 E-score
GGCGGGTA	0.228 E-score
GTGGGAAC	-0.25 E-score
ATACGCGG	0.182 E-score
ATACACTA	0.297 E-score
AACGACGA	-0.0982 E-score
CGCAAGTA	0.0753 E-score
ATTCTCGG	-0.0499 E-score
AGGCTACT	-0.0855 E-score
ATATTATG	0.299 E-score
GTACCCAA	-0.0233 E-score
CGATTTAG	-0.0787 E-score
GACGCCAC	-0.0329 E-score
CTCGCCAG	-0.0747 E-score

Sequence	binding signal
AACGGCGT	-0.163 E-score
ACAAACGC	-0.079 E-score
ATGACGCA	0.0615 E-score
CAGCCTCA	0.055 E-score
ATGTATAG	0.217 E-score
ACTTCATG	-0.0719 E-score
GAATCGTA	0.0549 E-score
ACGACGTC	-0.0461 E-score
CCACTAGA	-0.0637 E-score
ATCTTGTA	0.184 E-score
CTAAAAAA	-0.0435 E-score
GTGGCGCA	-0.18 E-score
CCGGATTA	0.351 E-score
AATACTGA	0.0647 E-score
CTTCAGAA	-0.158 E-score
ACCATCTG	0.144 E-score
ACCATAAC	-0.0318 E-score
GCGTGCCC	-0.101 E-score
CGGACTAG	-0.126 E-score
AACGGTGG	-0.0756 E-score
TATCGAGA	0.293 E-score
GTGGGTAA	-0.0776 E-score
TATTGTGA	0.19 E-score
ACCGAGAG	0.0847 E-score
TCGGTACA	0.0942 E-score

Sequence	binding signal
CCACGACC	-0.17 E-score
TAGGTAGA	0.0282 E-score
ATCACCCA	0.308 E-score
ACTACCGC	-0.0862 E-score
CCACGCGA	0.0314 E-score
CGGCGCAG	-0.119 E-score
GGCGATAA	0.112 E-score
GGCACTAA	-0.152 E-score
GAACCTGC	-0.0489 E-score
ATAGTAAT	0.138 E-score
CCCGTTCC	-0.124 E-score
ACCATGTC	0.101 E-score
CCCTCTAC	0.059 E-score
TACCTGCA	-0.0766 E-score
AAAGCCTG	-0.0921 E-score
GACAACCA	-0.158 E-score
GAGTTACC	-0.0969 E-score
GTCCAATA	0.105 E-score
AGGGCGTA	-0.0135 E-score
AACGGGTC	-0.272 E-score
ACATTACG	-0.218 E-score
AACCCAAC	0.0602 E-score
GACGCTAA	-0.191 E-score
CCCGTTAA	-0.146 E-score
CGTTGGCC	-0.17 E-score

Sequence	binding signal
AGCAAGCT	-0.278 E-score
ATAACACA	-0.00834 E-score
CAGTATCC	0.39 E-score
AGCAGAAC	0.0537 E-score
AGTCGAGG	-0.0141 E-score
AGGAGCAA	-0.176 E-score
AGCCGGGG	0.0708 E-score
CTATCCTC	0.282 E-score
GACGGTTA	-0.163 E-score
CCGAGGGC	-0.182 E-score
AAGGATAG	0.195 E-score
ACCATCAG	-0.0452 E-score
AGCCTGTC	-0.079 E-score
CGCTCATA	-0.0628 E-score
AAGTAGAA	-0.0618 E-score
GAACAGCC	-0.164 E-score
GAGAGATA	0.323 E-score
CAAGTTGA	0.00464 E-score
ATAGGTGG	0.0806 E-score
CCGCTCTA	-0.112 E-score
CGAGACGC	0.167 E-score
AAATAATT	-0.0636 E-score
CTTTTCCC	-0.35 E-score
ACACCTTG	0.186 E-score
AAACCTGC	-0.0926 E-score

Sequence	binding signal
CCAGCGTC	0.133 E-score
ATAATGAA	0.0856 E-score
CAGCACGG	-0.137 E-score
TGTATCAA	0.41 E-score
ATCGGGTG	0.32 E-score
CCTCCGAA	-0.0218 E-score
CGACACCA	0.416 E-score
AGTTTTCC	-0.0644 E-score
CATTGTAC	-0.047 E-score
AGGTCCCG	-0.152 E-score
AGGCTAAC	-0.0677 E-score
AATAGCGT	-0.111 E-score
ACAAATTA	-0.0981 E-score
AAAAGTAA	-0.223 E-score
CTCTGGTC	-0.00895 E-score
AGTGCATA	-0.0255 E-score
ACGACTTC	-0.313 E-score
CATTTTGG	-0.146 E-score
CCCGTATA	0.29 E-score
AATCTACT	-0.0322 E-score
GTTATCTA	0.0655 E-score
CGAGGTCA	-0.15 E-score
CATTCCCC	-0.00963 E-score
CATTTTCC	-0.145 E-score
CAATGTAA	-0.0788 E-score

Sequence	binding signal
CTAAAAGA	0.0522 E-score
TAAACGCA	-0.0325 E-score
GCAGACGA	0.0652 E-score
CAAAAATC	-0.234 E-score
CACCTAAC	-0.0096 E-score
CAGACGGG	-0.0188 E-score
AAGAATTC	-0.223 E-score
ACGAGCAA	-0.334 E-score
CTGGCTGA	0.0779 E-score
ACAGCCGC	-0.111 E-score
ACGTATGC	0.0454 E-score
TAAGTATA	0.218 E-score
GCAAAAGA	-0.169 E-score
CGCCCGCC	-0.00312 E-score
CGTATTCA	0.265 E-score
CATCCAGC	0.00619 E-score
ACGGGAAG	-0.095 E-score
GACATGTC	-0.256 E-score
ATATGGCA	0.204 E-score
AAGCTGCC	-0.118 E-score
AGGACGAA	-0.126 E-score
GAGAGACA	0.0879 E-score
CGACTAAA	0.0129 E-score
GGATAGAC	0.151 E-score
AGCGACTA	-0.202 E-score

Sequence	binding signal
AATTAGGT	-0.0262 E-score
CTTACGCC	-0.0992 E-score
CACAACCA	-0.113 E-score
CCCAATCG	0.0344 E-score
AACTCCAG	-0.0574 E-score
GCCCTGTA	-0.0643 E-score
ATAGTTTC	0.0852 E-score
CTGTTAAG	-0.288 E-score
CCCCTGAA	0.0737 E-score
CTTGGATC	0.295 E-score
AATGCGGA	-0.00414 E-score
GCTTTACA	-0.154 E-score
CACGTCTC	0.0977 E-score
CTTCGTAA	-0.249 E-score
AATTCTGA	-0.0645 E-score
CCTACTCA	0.161 E-score
GAGAGCCA	-0.0782 E-score
AAGCGTAC	-0.124 E-score
AATAACCG	-0.192 E-score
ATGTTTTG	-0.132 E-score
AACTTGTC	-0.288 E-score
CTCTCTAA	-0.163 E-score
